Holding throughout (experiment): glycan array binding signal (z-score within array); higher = stronger binding
Holding throughout (details): glycan notation: IUPAC condensed, linker removed

The target of assay [1] is Gal(b1-4)GlcNAc(b1-2)Man(a1-6)[Man(a1-3)]Man(b1-4)GlcNAc(b1-4)GlcNAc. In short, it runs like this: (§1)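 Negative Z-scores can be read as non-binding. The Z-score is calculated within each array and then averaged across arrays of one protein sequence at different concentrations or buffers and across linkers. Arrays, 3228 in all, were curated from the Consortium for Functional Glycomics database and kept only where the protein sequence was available.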

In assay [2] the target is Gal(b1-4)GlcNAc(b1-2)[Gal(b1-4)GlcNAc(b1-4)]Man(a1-3)[Gal(b1-4)GlcNAc(b1-2)Man(a1-6)]Man(b1-4)GlcNAc(b1-4)GlcNAc. In short, it runs like this: as §1
In assay [3] the target is Gal(b1-4)GlcNAc(b1-2)[Gal(b1-4)GlcNAc(b1-4)]Man(a1-3)[Gal(b1-4)GlcNAc(b1-2)[Gal(b1-4)GlcNAc(b1-6)]Man(a1-6)]Man(b1-4)GlcNAc(b1-4)GlcNAc. The procedure, abridged: as §1
Assay [4] addresses Gal(b1-4)GlcNAc(b1-2)[Gal(b1-4)GlcNAc(b1-4)]Man(a1-3)[GlcNAc(b1-4)][Gal(b1-4)GlcNAc(b1-2)Man(a1-6)]Man(b1-4)GlcNAc(b1-4)GlcNAc. In short, it runs like this:
as §1

For assay [5], the target named is Gal(b1-4)GlcNAc(b1-2)[Gal(b1-4)GlcNAc(b1-4)]Man(a1-3)[GlcNAc(b1-4)][Gal(b1-4)GlcNAc(b1-2)[Gal(b1-4)GlcNAc(b1-6)]Man(a1-6)]Man(b1-4)GlcNAc(b1-4)GlcNAc. In short, it runs like this:
as §1

For assay [6], the target named is Gal(b1-4)GlcNAc(b1-2)[Gal(b1-4)GlcNAc(b1-6)]Man(a1-6)[Gal(b1-4)GlcNAc(b1-2)Man(a1-3)]Man(b1-4)GlcNAc(b1-4)GlcNAc. The procedure, abridged:
as §1

Assay [7] addresses Gal(b1-4)GlcNAc(b1-2)[Gal(b1-4)GlcNAc(b1-6)]Man(a1-6)[Gal(b1-4)GlcNAc(b1-2)Man(a1-3)]Man(b1-4)GlcNAc(b1-4)[Fuc(a1-6)]GlcNAc. The procedure, abridged: as §1
In assay [8] the target is Gal(b1-4)GlcNAc(b1-2)[Gal(b1-4)GlcNAc(b1-6)]Man(a1-6)[GlcNAc(b1-4)][Gal(b1-4)GlcNAc(b1-2)Man(a1-3)]Man(b1-4)GlcNAc(b1-4)GlcNAc. The procedure, abridged:
as §1

The target in assay [9] is Gal(b1-4)GlcNAc(b1-2)[Gal(b1-4)GlcNAc(b1-6)]Man(a1-6)[GlcNAc(b1-4)][Gal(b1-4)GlcNAc(b1-2)[Gal(b1-4)GlcNAc(b1-4)]Man(a1-3)]Man(b1-4)GlcNAc(b1-4)[Fuc(a1-6)]GlcNAc. The procedure, abridged: as §1
The target of assay [10] is Gal(b1-4)GlcNAc(b1-3)Gal(b1-3)GalNAc. The procedure, abridged:
as §1

Assay [11] concerns the target Gal(b1-4)GlcNAc(b1-3)Gal(b1-3)GlcNAc. The procedure, abridged: as §1
For assay [12], the target named is Gal(b1-4)GlcNAc(b1-3)Gal(b1-4)Glc. In short, it runs like this: as §1
Assay [13] addresses Gal(b1-4)GlcNAc(b1-3)Gal(b1-4)GlcNAc. In short, it runs like this:
as §1

For assay [14], the target named is Gal(b1-4)GlcNAc(b1-3)Gal(b1-4)GlcNAc(b1-2)Man(a1-3)[Gal(b1-4)GlcNAc(b1-3)Gal(b1-4)GlcNAc(b1-2)Man(a1-6)]Man(b1-4)GlcNAc(b1-4)GlcNAc. In short, it runs like this: as §1
For assay [15], the target named is Gal(b1-4)GlcNAc(b1-3)Gal(b1-4)GlcNAc(b1-2)Man(a1-3)[Gal(b1-4)GlcNAc(b1-3)Gal(b1-4)GlcNAc(b1-2)Man(a1-6)]Man(b1-4)GlcNAc(b1-4)[Fuc(a1-6)]GlcNAc. In short, it runs like this: as §1
For assay [16], the target named is Gal(b1-4)GlcNAc(b1-3)Gal(b1-4)GlcNAc(b1-2)[Gal(b1-4)GlcNAc(b1-3)Gal(b1-4)GlcNAc(b1-6)]Man(a1-6)[Gal(b1-4)GlcNAc(b1-3)Gal(b1-4)GlcNAc(b1-2)Man(a1-3)]Man(b1-4)GlcNAc(b1-4)GlcNAc. The procedure, abridged: as §1
Assay [17] concerns the target Gal(b1-4)GlcNAc(b1-3)Gal(b1-4)GlcNAc(b1-2)[Gal(b1-4)GlcNAc(b1-3)Gal(b1-4)GlcNAc(b1-6)]Man(a1-6)[Gal(b1-4)GlcNAc(b1-3)Gal(b1-4)GlcNAc(b1-2)Man(a1-3)]Man(b1-4)GlcNAc(b1-4)[Fuc(a1-6)]GlcNAc. The procedure, abridged: as §1
Assay [18] concerns the target Gal(b1-4)GlcNAc(b1-3)Gal(b1-4)GlcNAc(b1-3)Gal(b1-4)GlcNAc. The procedure, abridged: as §1
The target in assay [19] is Gal(b1-4)GlcNAc(b1-3)Gal(b1-4)GlcNAc(b1-3)Gal(b1-4)GlcNAc(b1-2)Man(a1-3)[Gal(b1-4)GlcNAc(b1-3)Gal(b1-4)GlcNAc(b1-3)Gal(b1-4)GlcNAc(b1-2)Man(a1-6)]Man(b1-4)GlcNAc(b1-4)GlcNAc. The procedure, abridged: as §1
Assay [20] concerns the target Gal(b1-4)GlcNAc(b1-3)Gal(b1-4)GlcNAc(b1-3)Gal(b1-4)GlcNAc(b1-2)Man(a1-3)[Gal(b1-4)GlcNAc(b1-3)Gal(b1-4)GlcNAc(b1-3)Gal(b1-4)GlcNAc(b1-2)Man(a1-6)]Man(b1-4)GlcNAc(b1-4)[Fuc(a1-6)]GlcNAc. The procedure, abridged:
as §1

Assay [21] concerns the target Gal(b1-4)GlcNAc(b1-3)Gal(b1-4)GlcNAc(b1-3)Gal(b1-4)GlcNAc(b1-2)[Gal(b1-4)GlcNAc(b1-3)Gal(b1-4)GlcNAc(b1-3)Gal(b1-4)GlcNAc(b1-6)]Man(a1-6)[Gal(b1-4)GlcNAc(b1-3)Gal(b1-4)GlcNAc(b1-3)Gal(b1-4)GlcNAc(b1-2)Man(a1-3)]Man(b1-4)GlcNAc(b1-4)[Fuc(a1-6)]GlcNAc. The procedure, abridged:
as §1

For assay [22], the target named is Gal(b1-4)GlcNAc(b1-3)Gal(b1-4)GlcNAc(b1-3)Gal(b1-4)GlcNAc(b1-3)Gal(b1-4)GlcNAc(b1-2)Man(a1-3)[Gal(b1-4)GlcNAc(b1-3)Gal(b1-4)GlcNAc(b1-3)Gal(b1-4)GlcNAc(b1-3)Gal(b1-4)GlcNAc(b1-2)Man(a1-6)]Man(b1-4)GlcNAc(b1-4)GlcNAc. The procedure, abridged:
as §1

Some of the results follow.

B1: MPA (Maclura pomifera), P18674 (protein)
chain: GVTFDDGAYTGIREINFEYNSETAIGGLRVTYDLNGMPFVAEDHKSFITGFKPVKISLEFPSEYIVEVSGYVGKVEGYTVIRSLTFKTNKQTYGPYGVTNGTPFSLPIENGLIVGFKGSIGYWLDYFSIYLSL
For B1, the “glycan array binding signal (z-score)” value was -0.302 in assay [1]; -0.046 in assay [2]; -0.263 in [3]; -0.306 in assay [4]; -0.214 in assay [5]; -0.276 in [6]. The “glycan array binding signal (z-score)” value was -0.279 in assay [7]; -0.264 in assay [8]; -0.072 in assay [9]; -0.278 in assay [10]; -0.221 in assay [11]; -0.206 in assay [12]. For the same molecule, the “glycan array binding signal (z-score)” value in assay [13] is -0.244; in [14] it was 3.21; in assay [15] it was 0.302; in [16], 1.21; in assay [17], 2.04; in assay [18] it was -0.271. In addition, the “glycan array binding signal (z-score)” value in assay [19] was 8.11; in assay [20], 0.437; in assay [21] it was 2.44; in [22], 0.324.

The values above are taken from the supplement of paper PMC8728848.
